Results reported in the supplement of paper PMC4967469.
The IC50 comes from the fitted curve, where viability falls to half of the control; where the fit passes the top or lowest dose, that dose stands as a limit. For AUC the same curve is integrated over the 256-fold range of doses and scaled to a fraction; the more sensitive the line, the further below 1. For some assays here: An inferred top dose is not printed in the source and was worked back from the curve model.

How the values were obtained:
Assay in all cases: Viability of human cancer cell lines after 72 h of drug (GDSC screen)
Obatoclax mesylate = compound: COC1=CC(c2cc3ccccc3[nH]2)=N/C1=C\c1[nH]c(C)cc1C [Obatoclax mesylate]; details: top dose 16 µM
Procedure: (§1)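 Human cancer cell lines in 384-well plates, medium with 10% serum, drug for 72 h over a 256-fold dose range (nine 2-fold or five 4-fold steps up to the top dose). Adherent lines were fixed and stained with the nucleic acid dye Syto60, suspension lines read with resazurin; signal relative to control wells, capped at 0 and 100%. One two-parameter sigmoid per drug and line, fitted in a mixed model over all curves with the slope shared within a line.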

STF-62247 = compound: Cc1cccc(Nc2nc(-c3ccncc3)cs2)c1 [STF-62247]; details: top dose 10.24 µM; top dose inferred
Procedure: as §1

CX-5461 = compound: Cc1cnc(CNC(=O)c2c(=O)c3ccc(N4CCCN(C)CC4)nc3n3c2sc2ccccc23)cn1 [CX-5461]; details: top dose 10.24 µM; top dose inferred
Procedure: as §1

Paclitaxel = compound: CC(=O)O[C@H]1C(=O)[C@@]2(C)[C@H]([C@H](OC(=O)c3ccccc3)[C@]3(O)C[C@H](OC(=O)[C@H](O)[C@@H](NC(=O)c4ccccc4)c4ccccc4)C(C)=C1C3(C)C)[C@]1(OC(C)=O)CO[C@@H]1C[C@@H]2O [Paclitaxel]; details: top dose 0.1024 µM
Procedure: as §1

Bortezomib = compound: CC(C)C[C@H](NC(=O)[C@H](Cc1ccccc1)NC(=O)c1cnccn1)B(O)O [Bortezomib]; details: top dose 0.02 µM
Procedure: as §1

CP724714 = compound: COCC(=O)NC/C=C/c1ccc2ncnc(Nc3ccc(Oc4ccc(C)nc4)c(C)c3)c2c1 [CP724714]; details: top dose 10.24 µM; top dose inferred
Procedure: as §1

Cell Line	AUC (Obatoclax mesylate)	IC50 (Obatoclax mesylate) [nM]	AUC (STF-62247)	IC50 (STF-62247) [nM]	AUC (CX-5461)	IC50 (CX-5461) [nM]	AUC (Paclitaxel)	IC50 (Paclitaxel) [nM]	AUC (Bortezomib)	IC50 (Bortezomib) [nM]	AUC (CP724714)	IC50 (CP724714) [nM]
8-MG-BA (glioma, adherent)	0.166	105	0.933	> 10200	0.887	10200	0.476	5.54	0.281	0.314	0.967	> 10200
697 (lymphoblastic leukaemia, suspension)	0.053	< 62.5	0.926	> 10200	0.198	105	0.315	2.2	0.54	1.57	0.978	> 10200
A3-KAW (B-cell lymphoma, suspension)	0.144	112	0.943	> 10200	0.701	2040	0.89	76.4	0.513	1.34	0.941	> 10200
A4-Fuk (B-cell lymphoma, suspension)	0.216	141	0.986	> 10200	0.622	1410	0.435	4.21	0.466	1.01	0.983	> 10200
A101D (melanoma, adherent)	0.091	< 62.5	0.981	> 10200	0.981	> 10200	0.568	10.2	0.24	0.181	0.981	> 10200
D-247MG (glioma, adherent)			0.763	5050	0.974	> 10200	0.806	76.5	0.365	0.462	0.831	10100
D-336MG (glioma, adherent)			0.942	> 10200	0.853	> 10200	0.85	> 102	0.389	0.568	0.97	> 10200
EHEB (lymphoid neoplasm, suspension)	0.523	1180					0.885	> 102	0.581	2.31		
EW-12 (Ewing sarcoma, suspension)							0.978	> 102	0.881	> 20		
GA-10 (Burkitt lymphoma, suspension)							0.344	2.55	0.469	1.04		
IM-9 (myeloma, suspension)	0.297	296					0.992	> 102	0.87	14.5		
JURL-MK1 (chronic myeloid leukaemia, suspension)	0.506	1040	0.942	> 10200	0.822	5930			0.635	2.95	0.969	> 10200
KARPAS-231 (B-cell leukaemia, suspension)	0.116	95.1					0.498	6.33	0.448	0.931	0.975	> 10200
KGN (ovary, adherent)	0.299	239	0.96	> 10200	0.319	177			0.569	2.02	0.98	> 10200
KURAMOCHI (ovary, adherent)	0.136	< 62.5	0.982	> 10200	0.977	> 10200			0.511	1.34	0.977	> 10200
LB647-SCLC (small cell lung carcinoma, semi-adherent)			0.856	9850	0.846	8830	0.621	14.4	0.651	3.47		
LS-1034 (large intestine, adherent)	0.456	750	0.907	> 10200	0.834	7670			0.841	16.1	0.986	> 10200
MOLT-4 (lymphoblastic leukaemia, suspension)	0.1	73	0.928	> 10200	0.169	83.5			0.44	0.888	0.986	> 10200
NB12 (neuroblastoma, adherent)	0.443	662	0.98	> 10200	0.62	1540			0.554	1.85	0.951	> 10200
NB17 (neuroblastoma, adherent)			0.82	7060	0.224	86.8	0.774	46.2	0.565	1.93	0.92	> 10200
NB-4 (acute myeloid leukaemia, suspension)	0.07	< 62.5	0.972	> 10200	0.47	539			0.712	4.34	0.967	> 10200
NCI-H23 (lung adenocarcinoma, adherent)	0.793	7230	0.983	> 10200	0.977	> 10200			0.798	9.41	0.987	> 10200
NCI-H69 (small cell lung carcinoma, suspension)	0.673	3220	0.923	> 10200	0.979	> 10200			0.543	1.66	0.981	> 10200
NCI-H82 (small cell lung carcinoma, suspension)	0.603	1880	0.983	> 10200	0.93	> 10200			0.687	4.05	0.985	> 10200
NCI-H128 (small cell lung carcinoma, suspension)							0.971	> 102	0.884	> 20		

Cell Line	AUC (Obatoclax mesylate)	IC50 (Obatoclax mesylate) [nM]	AUC (STF-62247)	IC50 (STF-62247) [nM]	AUC (CX-5461)	IC50 (CX-5461) [nM]	AUC (Paclitaxel)	IC50 (Paclitaxel) [nM]	AUC (Bortezomib)	IC50 (Bortezomib) [nM]	AUC (CP724714)	IC50 (CP724714) [nM]
NCI-H187 (small cell lung carcinoma, suspension)	0.669	3080	0.983	> 10200	0.705	2560			0.912	> 20	0.985	> 10200
NCI-H209 (small cell lung carcinoma, suspension)	0.692	3610	0.978	> 10200	0.985	> 10200			0.854	17.5	0.968	> 10200
NCI-H446 (small cell lung carcinoma, semi-adherent)	0.494	962	0.984	> 10200	0.694	2350			0.645	3.26	0.985	> 10200
NCI-H526 (small cell lung carcinoma, suspension)	0.648	2510	0.974	> 10200	0.87	8840			0.717	4.97	0.978	> 10200
NCI-H1299 (large cell lung carcinoma, adherent)	0.168	73.2	0.981	> 10200	0.981	> 10200			0.949	> 20	0.981	> 10200
NCI-H1417 (small cell lung carcinoma, suspension)	0.386	455	0.973	> 10200	0.784	5250			0.726	6.31	0.919	> 10200
NCI-H1876 (small cell lung carcinoma, adherent)	0.68	3200	0.985	> 10200	0.762	3710			0.83	12.8	0.971	> 10200
NCI-H1963 (small cell lung carcinoma, suspension)	0.492	956	0.977	> 10200	0.847	6110	0.709	22.8	0.636	2.81		
NCI-H2227 (small cell lung carcinoma, semi-adherent)	0.769	6850	0.986	> 10200	0.895	> 10200			0.764	8.17	0.981	> 10200
NK-92MI (lymphoid neoplasm, suspension)	0.108	< 62.5					0.969	> 102	0.419	0.762		
P31-FUJ (acute myeloid leukaemia, suspension)			0.957	> 10200	0.99	> 10200	0.996	> 102	0.993	> 20	0.989	> 10200
RC-K8 (B-cell lymphoma, suspension)	0.494	964	0.99	> 10200	0.976	> 10200			0.692	3.96	0.993	> 10200
RKO (large intestine, adherent)	0.048	< 62.5	0.972	> 10200	0.512	688			0.453	0.94	0.981	> 10200
RL95-2 (endometrium, adherent)			0.978	> 10200	0.856	8100	0.379	2.99	0.662	3.5	0.981	> 10200
SK-MEL-2 (melanoma, adherent)	0.274	221	0.987	> 10200	0.978	> 10200			0.951	> 20	0.983	> 10200
SK-N-FI (neuroblastoma, adherent)	0.683	3250	0.977	> 10200	0.99	> 10200			0.838	13.3	0.98	> 10200
SKM-1 (haematopoietic neoplasm, suspension)							0.983	> 102	0.929	> 20		
SR (lymphoid neoplasm, suspension)	0.107	63.2	0.876	8400	0.21	100			0.566	1.85	0.946	> 10200
TALL-1 (T-cell lymphoblastic leukaemia, suspension)			0.965	> 10200	0.967	> 10200	0.809		0.915	> 20	0.981	> 10200
TE-441-T (rhabdomyosarcoma, adherent)	0.567	1510					0.94	> 102	0.924	> 20	0.986	> 10200
TK (B-cell lymphoma, suspension)	0.209	154	0.983	> 10200	0.933	> 10200			0.551	1.7	0.99	> 10200
TUR (B-cell lymphoma, suspension)			0.888	9990	0.89	> 10200	0.988	> 102	0.93	> 20	0.949	> 10200
U-87-MG (glioma, adherent)	0.641	2650	0.976	> 10200	0.951	> 10200			0.848	18.9	0.984	> 10200
UACC-812 (breast, adherent)	0.866	13400	0.982	> 10200	0.981	> 10200			0.84	13.1	0.947	> 10200
VAL (B-cell lymphoma, suspension)	0.161	91.3	0.915	> 10200	0.741	3140			0.447	0.897	0.976	> 10200
